Measurements taken from the supplement of paper PMC4967469.

What was measured:
Experiment in all cases: Viability of human cancer cell lines after 72 h of drug (GDSC screen)
LAQ824 = compound: O=C(/C=C/c1ccc(CN(CCO)CCc2c[nH]c3ccccc23)cc1)NO [LAQ824]; conditions: top dose 1.024 µM; top dose inferred
Method: (§1)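 Human cancer cell lines in 384-well plates, medium with 10% serum, drug for 72 h over a 256-fold dose range (nine 2-fold or five 4-fold steps up to the top dose). Adherent lines were fixed and stained with the nucleic acid dye Syto60, suspension lines read with resazurin; signal relative to control wells, capped at 0 and 100%. One two-parameter sigmoid per drug and line, fitted in a mixed model over all curves with the slope shared within a line.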

Bleomycin = compound: Cc1c(N)nc([C@H](CC(N)=O)NC[C@H](N)C(N)=O)nc1C(=O)N[C@H](C(=O)N[C@H](C)[C@@H](O)[C@H](C)C(=O)N[C@H](C(=O)NCCc1nc(-c2nc(C(=O)NCCC[S+](C)C)cs2)cs1)[C@@H](C)O)[C@@H](OC1OC(CO)C(O)C(O)C1OC1OC(CO)C(O)C(OC(N)=O)C1O)c1cnc[nH]1 [Bleomycin]
Method: as §1

VNLG/124 = compound: CCCC(=O)OCc1ccc(OC(=O)/C=C(C)/C=C/C=C(C)/C=C/C2=C(C)CCCC2(C)C)cc1 [VNLG/124]; conditions: top dose 5.12 µM; top dose inferred
Method: as §1

Elesclomol = compound: CN(NC(=O)CC(=O)NN(C)C(=S)c1ccccc1)C(=S)c1ccccc1 [Elesclomol]; conditions: top dose 0.2 µM; top dose inferred
Method: as §1

NSC-87877 = compound: O=S(=O)(O)c1ccc2cc(N=Nc3cc(S(=O)(=O)O)c4cccnc4c3O)ccc2c1 [NSC-87877]; conditions: top dose 16 µM; top dose inferred
Method: as §1

OSI-930 = compound: O=C(Nc1ccc(OC(F)(F)F)cc1)c1sccc1NCc1ccnc2ccccc12 [OSI-930]; conditions: top dose 10.24 µM
Method: as §1

BX-912 = compound: O=C(Nc1cccc(Nc2ncc(Br)c(NCCc3cnc[nH]3)n2)c1)N1CCCC1 [BX-912]; conditions: top dose 10.24 µM; top dose inferred
Method: as §1

Masitinib = compound: Cc1ccc(NC(=O)c2ccc(CN3CCN(C)CC3)cc2)cc1Nc1nc(-c2cccnc2)cs1 [Masitinib]; conditions: top dose 20 µM
Method: as §1

[1] = top dose 64 µM, screen: GDSC drug entry 190
[2] = top dose 50 µM, screen: GDSC drug entry 1378, top dose inferred

Cell Line | AUC (LAQ824) | IC50 (LAQ824) | AUC (Bleomycin; [1]) | IC50 (Bleomycin; [1]) | AUC (VNLG/124) | IC50 (VNLG/124) | AUC (Elesclomol) | IC50 (Elesclomol) | AUC (NSC-87877) | IC50 (NSC-87877) | AUC (OSI-930) | IC50 (OSI-930) | AUC (BX-912) | IC50 (BX-912) | AUC (Masitinib) | IC50 (Masitinib) | AUC (Bleomycin; [2]) | IC50 (Bleomycin; [2])
NCI-H1963 (small cell lung carcinoma, suspension) | 0.375 | 0.0304 µM | 0.917 | > 64 µM | 0.984 | > 5.12 µM | 0.744 | 0.0559 µM | 0.973 | > 16 µM |  |  |  |  |  |  |  | 
NCI-H1734 (lung adenocarcinoma, adherent) | 0.536 | 0.0813 µM | 0.114 | < 0.25 µM | 0.983 | > 5.12 µM | 0.705 | 0.0506 µM | 0.985 | > 16 µM | 0.979 | > 10.2 µM | 0.905 | > 10.2 µM | 0.916 | > 20 µM |  | 
CAL-120 (breast, adherent) | 0.55 | 0.0913 µM | 0.531 | 4.99 µM | 0.968 | > 5.12 µM | 0.532 | 0.0157 µM | 0.905 | > 16 µM | 0.951 | > 10.2 µM | 0.853 | > 10.2 µM | 0.979 | > 20 µM | 0.613 | 7.02 µM
SW954 (urogenital system, adherent) | 0.282 | 0.0153 µM | 0.072 | < 0.25 µM | 0.969 | > 5.12 µM | 0.556 | 0.0178 µM | 0.916 | > 16 µM | 0.956 | > 10.2 µM | 0.493 | 0.613 µM | 0.874 | 19.9 µM | 0.141 | 0.232 µM
MCF7 (breast, adherent) | 0.349 | 0.0239 µM | 0.327 | 1.29 µM | 0.983 | > 5.12 µM | 0.561 | 0.0184 µM | 0.977 | > 16 µM | 0.92 | > 10.2 µM | 0.986 | > 10.2 µM | 0.973 | > 20 µM | 0.654 | 8.48 µM
OCUM-1 (stomach, adherent) | 0.357 | 0.0246 µM | 0.321 | 1.19 µM | 0.986 | > 5.12 µM | 0.705 | 0.0508 µM | 0.987 | > 16 µM | 0.974 | > 10.2 µM | 0.983 | > 10.2 µM | 0.972 | > 20 µM | 0.678 | 10.5 µM
NCI-H510A (small cell lung carcinoma, semi-adherent) | 0.35 | 0.0255 µM | 0.327 | 1.38 µM | 0.982 | > 5.12 µM | 0.798 | 0.0863 µM | 0.987 | > 16 µM | 0.968 | > 10.2 µM | 0.989 | > 10.2 µM | 0.984 | > 20 µM |  | 
MHH-NB-11 (neuroblastoma, adherent) | 0.851 | 0.91 µM | 0.411 | 2.23 µM | 0.985 | > 5.12 µM | 0.686 | 0.0438 µM | 0.985 | > 16 µM | 0.972 | > 10.2 µM | 0.584 | 1.11 µM | 0.881 | > 20 µM |  | 
201T (lung adenocarcinoma, adherent) | 0.387 | 0.0288 µM | 0.046 | < 0.25 µM | 0.977 | > 5.12 µM | 0.648 | 0.0359 µM | 0.958 | > 16 µM | 0.976 | > 10.2 µM | 0.876 | > 10.2 µM | 0.923 | > 20 µM |  | 
HT-1080 (fibrosarcoma, adherent) | 0.538 | 0.0803 µM | 0.196 | 0.567 µM | 0.989 | > 5.12 µM | 0.361 | 0.0054 µM | 0.971 | > 16 µM | 0.972 | > 10.2 µM | 0.97 | > 10.2 µM | 0.937 | > 20 µM | 0.143 | 0.286 µM
MDA-MB-436 (breast, adherent) | 0.757 | 0.438 µM | 0.756 | 27.1 µM | 0.981 | > 5.12 µM | 0.482 | 0.0111 µM | 0.984 | > 16 µM | 0.947 | > 10.2 µM | 0.982 | > 10.2 µM | 0.971 | > 20 µM | 0.645 | 8.8 µM
CCRF-CEM (lymphoblastic leukaemia, suspension) | 0.24 | 0.0133 µM | 0.218 | 0.715 µM | 0.972 | > 5.12 µM | 0.337 | 0.00478 µM | 0.991 | > 16 µM | 0.96 | > 10.2 µM |  |  |  |  | 0.81 | 21.3 µM
NCI-H64 (small cell lung carcinoma, suspension) | 0.334 | 0.0253 µM | 0.162 | 0.564 µM | 0.995 | > 5.12 µM | 0.977 | > 0.2 µM | 0.989 | > 16 µM | 0.992 | > 10.2 µM | 0.952 | > 10.2 µM | 0.911 | 15.2 µM |  | 
HT (B-cell lymphoma, suspension) | 0.412 | 0.0376 µM | 0.556 | 5.61 µM | 0.962 | > 5.12 µM | 0.815 | 0.0984 µM | 0.987 | > 16 µM | 0.951 | > 10.2 µM | 0.947 | > 10.2 µM | 0.87 | 16.1 µM | 0.87 | 40.2 µM
BxPC-3 (pancreas, adherent) | 0.399 | 0.0325 µM | 0.505 | 4.13 µM | 0.976 | > 5.12 µM | 0.784 | 0.0961 µM | 0.982 | > 16 µM | 0.983 | > 10.2 µM | 0.913 | > 10.2 µM | 0.854 | 19 µM | 0.617 | 6.83 µM

By IC50 is meant the dose at which the fit gives 50% viability; fits outside the tested doses are given as limits. For AUC the same curve is integrated over the 256-fold range of doses and scaled to a fraction; values near 1 show little effect. For some assays here: An inferred top dose comes from the curve model; the source does not state it. For some assays here: Where an entry number is given, a second screen of the drug exists; the two often differ.
